Source: article PMC4336329 (PLoS ONE, 2015)
Out of some 310,000 compounds screened, about 14,000 (4.5%) showed an effect of 50% or more. Effects have a minus sign here. The list shows a part of the results.

Target: human ether-à-go-go-related gene (hERG) potassium channel (human, UniProt Q12809)
Assay: primary screen, population patch clamp on CHO cells stably expressing hERG
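Note: peak tail current of the secondary pulse compared with the same well before compound.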

human ether-à-go-go-related gene (hERG) potassium channel, sequence (Q12809 whole entry, looked up): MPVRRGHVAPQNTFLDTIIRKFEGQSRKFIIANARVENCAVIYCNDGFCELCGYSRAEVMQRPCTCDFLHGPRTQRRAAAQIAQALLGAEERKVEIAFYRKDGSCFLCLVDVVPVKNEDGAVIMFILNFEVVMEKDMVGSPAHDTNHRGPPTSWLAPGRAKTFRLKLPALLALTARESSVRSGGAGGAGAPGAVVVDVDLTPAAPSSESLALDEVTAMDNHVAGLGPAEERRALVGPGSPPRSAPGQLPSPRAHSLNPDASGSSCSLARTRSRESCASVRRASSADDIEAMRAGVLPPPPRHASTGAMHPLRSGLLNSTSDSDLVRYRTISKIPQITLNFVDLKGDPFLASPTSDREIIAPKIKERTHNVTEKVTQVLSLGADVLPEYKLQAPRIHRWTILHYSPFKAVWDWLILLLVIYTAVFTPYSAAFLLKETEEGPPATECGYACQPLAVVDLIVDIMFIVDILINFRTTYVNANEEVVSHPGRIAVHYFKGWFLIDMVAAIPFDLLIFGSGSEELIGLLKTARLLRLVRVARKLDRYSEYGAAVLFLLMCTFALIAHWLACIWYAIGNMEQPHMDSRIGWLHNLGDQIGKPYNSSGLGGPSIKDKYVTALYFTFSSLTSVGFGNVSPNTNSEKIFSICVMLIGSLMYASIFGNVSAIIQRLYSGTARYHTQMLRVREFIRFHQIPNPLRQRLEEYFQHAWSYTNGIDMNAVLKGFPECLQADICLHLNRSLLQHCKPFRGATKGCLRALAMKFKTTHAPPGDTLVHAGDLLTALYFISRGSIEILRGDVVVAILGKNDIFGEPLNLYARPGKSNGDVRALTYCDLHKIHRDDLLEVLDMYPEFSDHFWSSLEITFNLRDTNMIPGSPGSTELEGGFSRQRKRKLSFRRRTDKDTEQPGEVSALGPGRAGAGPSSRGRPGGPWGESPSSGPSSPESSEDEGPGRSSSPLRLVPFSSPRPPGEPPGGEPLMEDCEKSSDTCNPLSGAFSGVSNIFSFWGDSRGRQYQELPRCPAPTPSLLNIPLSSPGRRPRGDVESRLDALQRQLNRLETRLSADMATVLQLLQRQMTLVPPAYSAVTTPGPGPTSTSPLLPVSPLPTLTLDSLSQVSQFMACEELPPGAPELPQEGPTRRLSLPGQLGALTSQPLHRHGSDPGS

Row | Compound | hERG current change (%, negative = inhibition) at 10uM [%]
1 | Cc1nc2cc(NC(=O)N3CCCC3)ccc2n1C | -1.21
2 | COc1ccc(C(CNC(=O)COc2ccccc2)N2CCOCC2)cc1 (centres unmarked) | 5.9
3 | Cn1cnnc1SCC(=O)Nc1cccc(S(=O)(=O)N2CCCCCC2)c1 | -17.4
4 | O=C(/C=N/O)NCCN1CCCCC1 | 11.5
5 | O=C(Cn1c(CO)nc2ccccc21)Nc1cc(C(F)(F)F)ccc1N1CCOCC1 | 1.37
6 | CC(Oc1cccc2ccccc12)C(=O)N/N=C/c1cccnc1 (centres unmarked) | -14.9
7 | CNC(=O)CC(C(=O)O)c1ccc(OC(C)C)cc1 (centres unmarked) | -1.5
8 | O=C(O)CCCCCCCCc1cn(CC2CCCCC2)nn1 | 7.45
9 | CN=c1sc(C(=O)Nc2ccccc2)c(C)n1C | 8.4
10 | C=CCNC(=S)NNC(=O)C(CCCC)CC(O)COCC(C)C (centres unmarked) | -0.671
11 | CCn1ccnc1CN(C)C(=O)C1CCC(=O)N(Cc2cccc(C(F)(F)F)c2)C1 (centres unmarked) | -22.8
12 | COc1ccc(C(=O)OCC(=O)c2ccc(C3CCCCC3)cc2)cc1 | 5.66
13 | COc1ccc(CCNC(=O)c2ccc(NS(=O)(=O)c3ccc4[nH]c(=O)[nH]c4c3)cc2)cc1OC | 11.7
14 | O=C(C1CCCN(S(=O)(=O)c2cccc3nonc23)C1)N1CCN(c2cccc(Cl)c2)CC1 (centres unmarked) | -8.39
15 | O=C1NC(=O)C(CCc2ccncc2)(Cc2cccc(Cl)c2Cl)C(=O)N1c1ccc(Br)cc1 (centres unmarked) | -11
16 | CS(=O)(=O)N(CC(=O)NCc1ccccc1)c1ccc(Cl)cc1 | 7.66
17 | CCOC(=O)c1nn(-c2ccc(Br)cc2)cc1C(=O)c1cccc2ccccc12 | 14.8
18 | CCOC(=O)[C@H]1[C@H]2COc3ccc(Cl)cc3[C@@H]2N2C(=O)c3cc(Cl)ccc3NC(=O)[C@@]12C | 3.59
19 | CC(C)c1ccc(CNc2nnnn2C)cc1 | -0.457
20 | CCn1c(NC(=O)c2ccccc2)nc2ccccc21 | 4.47
21 | Cc1ccc2c(c1)c(C)c(C)n2CC(O)CN1CCOCC1.Cl (centres unmarked) | 0.437
22 | CC(=N)c1c(O)c2ccccc2oc1=O | 10.5
23 | CCN1CCN(C(=O)C2CCCN(c3ncnc4c3nc3n4CCCCC3)C2)CC1 (centres unmarked) | 11.6

Row | Compound | hERG current change (%, negative = inhibition) at 10uM [%]
24 | Cc1nnc(SCc2c(Cl)cccc2[N+](=O)[O-])s1 | -12.1
25 | Cc1sc2ncnc(N3CCC(C(=O)Nc4nc5ccc(Cl)cc5s4)CC3)c2c1C | 9.56
26 | COC(=O)CSc1nc(-c2ccccc2)nc2ccc(F)cc12 | -4.63
27 | Cc1ccc(O)c(C2=Nc3ccccc3N=C(c3cccc([N+](=O)[O-])c3)C2)c1 | 20.9
28 | COc1ccc(C(=O)NC(=S)NNC(=O)COc2ccccc2)cc1 | -2.47
29 | O=C(CN1C(=O)S/C(=C/c2cc(Br)cs2)C1=O)N1CCOCC1 | -40.8
30 | CC(C)COC(=O)NCCOC(=O)Nc1cccc(Cl)c1 | -4.46
31 | O=C(CCc1nc2ccccc2s1)OCC(=O)c1ccc[nH]1 | -1.38
32 | Cc1noc(C)c1COc1ccccc1C(=O)N(C)CC(=O)Nc1ccc(F)c(F)c1F | -32.8
33 | CN1CCN(C(=O)CCn2nc(-c3ccccc3)c3ccccc3c2=O)CC1 | -20.5
34 | O=C1CC(c2ccccc2Cl)CC(O)=C1C=Nc1ccccc1 (centres unmarked) | 0.512
35 | Cc1nc2ccc(NC(=O)c3nn(C(C)C)c(=O)c4ccccc34)cc2s1 | 1.85
36 | Cc1cc(Nc2ccc(Cl)cc2)nc(NCc2ccccc2)n1 | -2.44
37 | O=C(CS(=O)(=O)c1ccc(Br)cc1)N1CCOCC1 | 15.1
38 | COc1cccc(-c2[nH]nc3c2C(c2ccc(C)o2)C(C#N)=C(N)O3)c1 (centres unmarked) | -7.33
39 | COc1ccccc1N(CC(=O)N/N=C(\C)c1ccc(F)cc1)S(=O)(=O)c1ccccc1 | 27.8
40 | O=C(c1ccc(Cl)c(S(=O)(=O)N2CCCCC2)c1)N1CCCC1 | -7.02
41 | O=C(Nc1cccc(C(=O)N2CCOCC2)c1)NC1CCCCC1 | -2.64
42 | COc1cc(OC)c(NC(=O)c2cncn2-c2ccc(F)cc2)cc1Cl | -19.7
43 | O=C(NC1CCCc2ccccc21)c1ccccn1 (centres unmarked) | 7.04
44 | COC(=O)c1ccc(NC(=S)NC2CC(C)(C)NC(C)(C)C2)cc1 | 16.1
45 | CC(C)c1ccc(/C=c2\sc3nc(-c4ccncc4)nn3c2=O)cc1 | 6.39
46 | CCc1nc2sccc2c(=O)n1N | 30.1

Row | Compound | hERG current change (%, negative = inhibition) at 10uM [%]
47 | Cc1nn(Cc2ccc(F)cc2)c(C)c1NC(=O)c1cc(-c2ccc3c(c2)OCO3)on1 | -12.3
48 | COc1ccccc1C/C(N)=N/OC(=O)COc1cccc(C)c1 | 6.87
49 | O=C(CCl)N(CCc1ccccc1)CCc1ccccc1 | -1.08
50 | CCSc1nsc(NC(=O)Nc2ccc(F)cc2F)n1 | 24.1
51 | Cc1c(NC(=O)NC2CCCCC2)cccc1[N+](=O)[O-] | 26.5
52 | O=C(Nc1ccccc1-c1nnn(CC(=O)N2CCOCC2)n1)c1ccc(F)cc1 | -8.67
53 | Cc1ccc(-c2nc(-c3ccncc3)no2)c(C)c1 | 14.9
54 | CCOC(=O)c1ccc(N2CCOCC2)c(NC(=O)COCC(=O)O)c1 | -2.92
55 | OC1(CNCc2cn[nH]c2-c2cc3ccccc3o2)CCCCC1 | -28.7
56 | CCc1ccc(CNCc2ccc(F)cc2)cc1 | -21
57 | CN(C)S(=O)(=O)c1ccc(NC(=O)c2ccccn2)cc1 | 19.7
58 | Cc1ccc(-n2nc3c(c2NC(=O)c2cccs2)CS(=O)(=O)C3)cc1 | -12.5
59 | CC(=O)Nc1ccc(C(=O)OCC(=O)c2ccc(F)cc2)cc1 | 4.26
60 | CC1CCN(C2CCN(S(=O)(=O)c3ccc(F)cc3)CC2)CC1.O=C(O)C(=O)O | -31.7
61 | CCNCc1ccccc1OCc1ccccc1.Cl | -3.77
62 | Cc1ccccc1CSc1nnc([C@@H]2CCCN2)o1.Cl | 5.98
63 | COc1ccc(OC(=O)c2cn(C)nc2C(F)(F)F)cc1 | -1.05
64 | Cc1ccc2cc(C#N)c(NCCCNC(=O)C3CCCO3)nc2c1 (centres unmarked) | -11.8
65 | Cc1ccc(/C=N/NC(=S)NCCc2ccccc2)s1 | 27.9
66 | CC(=O)OC(C)(C)C#CCN1CCCC1 | 5
67 | COc1cccc2oc3ccc(C#CC4(N)CCCCC4)cc3c(=O)c12 | -12.2
68 | O=C(O)C(NS(=O)(=O)c1cccc2nsnc12)c1ccccc1 (centres unmarked) | 16.1
69 | Cc1ncc([N+](=O)[O-])n1Cc1cccc(F)c1 | 9.6

Row | Compound | hERG current change (%, negative = inhibition) at 10uM [%]
70 | Cc1c(-n2cc(C(=O)c3cc(Br)ccc3O)cc(C#N)c2=O)c(=O)n(-c2ccccc2)n1C | -22.6
71 | CC1CCCCN1S(=O)(=O)c1ccc(C(=O)N(CCCN(C)C)c2nc3ccc(Br)cc3s2)cc1.Cl (centres unmarked) | -37
72 | CCOc1ccc(NC(=O)c2ccc3nccnc3c2)cc1 | 13.6
73 | CCOC(=O)c1c(C)nc(-c2ccccc2)nc1NC(=O)CC | 1.29
74 | CCN(C(=O)COC(=O)CCc1ccccc1OC)c1c(N)n(Cc2ccccc2)c(=O)[nH]c1=O | -4.73
75 | CCOc1ccc(-c2nnn(CC(=O)NCc3ccco3)n2)cc1 | -14.4
76 | COc1ccc(-c2csc3nc[nH]c(=O)c23)cc1 | -39.5
77 | COc1ccc(OC)c(S(=O)(=O)NCCc2ccccc2)c1 | -5.48
78 | COC(=O)c1cc(S(=O)(=O)NCC2CCN(Cc3ccc(F)cc3)CC2)c[nH]1 | -57
79 | COCCCN1C(=O)c2ccc(C(=O)Nc3ccccc3OC)cc2C1=O | -17.3
80 | Cc1c(NC(=O)C(C)SC(=S)N2CCCC2)c(=O)n(-c2ccccc2)n1C (centres unmarked) | 24.8
81 | CCCC1CC(c2csc(N)n2)CCO1 (centres unmarked) | 16.1
82 | C=CCN1C(=O)S/C(=C/c2ccsc2)C1=O | 7.94
83 | O=C(Nc1ccc(N2CCCC2)cc1)c1ccc([N+](=O)[O-])cc1Cl | 11.6
84 | C=CCN(c1ccc(Cl)cc1)S(=O)(=O)c1cccc(C(=O)O)c1 | 1.92
85 | CCN(CC(=O)Nc1c(F)cccc1F)C(=O)c1cc(C)nc2ccccc12 | 9.3
86 | CCCc1nnc(SCC(=O)N2C(C)CCCC2C)n1CCCOC (centres unmarked) | 11
87 | COC(=O)c1ccc(S(=O)(=O)NCc2ccco2)n1C | 13.6
88 | COc1cccc(-c2nn(Cc3ccccc3)cc2CO)c1 | 8.47
89 | O=C(NNc1nc2ccc(Cl)cc2s1)c1cc(-c2cccs2)nc2ccccc12 | -1.95
90 | CCOC(=O)c1[nH]cnc1C(=O)Nc1ccccc1 | 8.84
91 | O=C(COc1ccccc1)NCC(=O)N/N=C/c1ccc(Br)cc1 | -14.6
92 | COc1ccc(Nc2ncc(C#N)c(N)n2)c(OC)c1 | -3.07
